Assay results as given in the BET-seq Pho4 binding data (Le et al. 2018).
The list shows a part of the results. These are noisy estimates, calculated here from bound and input reads.

These sequences were tested against T1, Pho4 (S. cerevisiae) (UniProt P07270) (assay: relative binding free energy (BET-seq); higher = weaker binding). Details: reference: library average.
T1 sequence: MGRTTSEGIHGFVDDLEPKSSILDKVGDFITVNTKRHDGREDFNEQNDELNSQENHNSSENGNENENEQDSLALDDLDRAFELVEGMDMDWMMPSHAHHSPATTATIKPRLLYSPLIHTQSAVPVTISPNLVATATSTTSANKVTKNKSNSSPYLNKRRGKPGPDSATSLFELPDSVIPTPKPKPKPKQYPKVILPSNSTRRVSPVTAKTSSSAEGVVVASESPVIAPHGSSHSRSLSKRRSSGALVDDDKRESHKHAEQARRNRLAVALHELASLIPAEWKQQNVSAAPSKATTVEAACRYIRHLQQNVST
TGTATCACGTGTCTGG was tested, and the “relative binding free energy” value was 0.21 kcal/mol.
For TGCGACACGTGAGTTG, the “relative binding free energy” value was 0.18 kcal/mol.
With GGATTCACGTGTCGGG the “relative binding free energy” value was 0.27 kcal/mol.
GTGGGCACGTGGGCCA was tested, and the “relative binding free energy” value was -0.41 kcal/mol.
CGAGGCACGTGGGTGA was tested, and the “relative binding free energy” value was -0.23 kcal/mol.
With TGGTCCACGTGGGGAG the “relative binding free energy” value was -0.06 kcal/mol.
For GTATACACGTGACGTT, the “relative binding free energy” value was 0.29 kcal/mol.
With GGTGTCACGTGAAGAT the “relative binding free energy” value was 0.17 kcal/mol.
For GTGAACACGTGAGGAA, the “relative binding free energy” value was 0.29 kcal/mol.
For TTACTCACGTGTTGTT, the “relative binding free energy” value was 0.15 kcal/mol.
AATTGCACGTGTGTGG was tested, and the “relative binding free energy” value was 0.02 kcal/mol.
In the case of GTAGTCACGTGATGTG, the “relative binding free energy” value is reported as 0.24 kcal/mol.
For TTTTTCACGTGCTATC, the “relative binding free energy” value was 0.36 kcal/mol.
In the case of AGGTTCACGTGCAGGG, the “relative binding free energy” value is reported as 0.13 kcal/mol.
For GGTGTCACGTGGATGT, the “relative binding free energy” value was 0.1 kcal/mol.
With ACTGACACGTGCGGGG the “relative binding free energy” value was -0.12 kcal/mol.
ATGATCACGTGAGATA was tested, and the “relative binding free energy” value was 0.56 kcal/mol.
With TTGTACACGTGTTAAA the “relative binding free energy” value was -0.04 kcal/mol.
For CGTATCACGTGATTAT, the “relative binding free energy” value was 0.31 kcal/mol.
In the case of CTTCGCACGTGGGTTA, the “relative binding free energy” value is reported as -0.16 kcal/mol.
For TCTCGCACGTGTGGTT, the “relative binding free energy” value was 0.07 kcal/mol.
For ATCGGCACGTGTTTAT, the “relative binding free energy” value was -0.03 kcal/mol.
With CTTATCACGTGGGCTT the “relative binding free energy” value was 0.03 kcal/mol.
In the case of CTGGGCACGTGCAGTT, the “relative binding free energy” value is reported as -0.03 kcal/mol.
In the case of TGAGGCACGTGACGGT, the “relative binding free energy” value is reported as -0.05 kcal/mol.
TAGGACACGTGAAGGT was tested, and the “relative binding free energy” value was 0.29 kcal/mol.
For CGTGACACGTGAGTGG, the “relative binding free energy” value was 0.15 kcal/mol.
GTCTTCACGTGGGTGG was tested, and the “relative binding free energy” value was 0.15 kcal/mol.
In the case of CGTAACACGTGATTGT, the “relative binding free energy” value is reported as 0.12 kcal/mol.
ATTAGCACGTGGTCCG was tested, and the “relative binding free energy” value was -0.08 kcal/mol.
TTCATCACGTGGATGT was tested, and the “relative binding free energy” value was 0.11 kcal/mol.
With GCGTACACGTGGGAGT the “relative binding free energy” value was 0.04 kcal/mol.
GATTTCACGTGGTCGT was tested, and the “relative binding free energy” value was 0.21 kcal/mol.
For GTTTACACGTGTAAAG, the “relative binding free energy” value was 0.27 kcal/mol.
For CGGTACACGTGGCGGG, the “relative binding free energy” value was -0.03 kcal/mol.
In the case of ATAATCACGTGTTTAG, the “relative binding free energy” value is reported as -0.01 kcal/mol.
In the case of CATTGCACGTGTTGTT, the “relative binding free energy” value is reported as -0.12 kcal/mol.
With TGTTTCACGTGTTCAT the “relative binding free energy” value was 0.23 kcal/mol.
For GTTATCACGTGAATAT, the “relative binding free energy” value was 0.28 kcal/mol.
In the case of GGTTTCACGTGAAGGG, the “relative binding free energy” value is reported as 0.38 kcal/mol.
GTACTCACGTGTTGAG was tested, and the “relative binding free energy” value was 0.2 kcal/mol.
TATTGCACGTGGCAGT was tested, and the “relative binding free energy” value was -0.07 kcal/mol.
In the case of TGATGCACGTGAGCGG, the “relative binding free energy” value is reported as 0.15 kcal/mol.
AGGGTCACGTGAGTAA was tested, and the “relative binding free energy” value was 0.28 kcal/mol.
GTGTTCACGTGGCTAT was tested, and the “relative binding free energy” value was 0.22 kcal/mol.
With TAGTGCACGTGTAGAG the “relative binding free energy” value was 0.09 kcal/mol.
For AGTCGCACGTGTGGGG, the “relative binding free energy” value was 0.07 kcal/mol.
For GTTGTCACGTGCGGTG, the “relative binding free energy” value was 0.05 kcal/mol.
For GTATTCACGTGATCTG, the “relative binding free energy” value was 0.18 kcal/mol.
In the case of ATTATCACGTGATAAA, the “relative binding free energy” value is reported as 0.26 kcal/mol.
TGAAGCACGTGGTCAG was tested, and the “relative binding free energy” value was -0.13 kcal/mol.
For AGGCGCACGTGTGAAG, the “relative binding free energy” value was -0.09 kcal/mol.
With AGACGCACGTGATTGG the “relative binding free energy” value was 0.19 kcal/mol.
TTGCGCACGTGAAGTG was tested, and the “relative binding free energy” value was 0.18 kcal/mol.
With GGGGTCACGTGCGTCT the “relative binding free energy” value was 0.12 kcal/mol.
For AAGTACACGTGTCGGT, the “relative binding free energy” value was 0.15 kcal/mol.
For AGGTTCACGTGAATGC, the “relative binding free energy” value was 0.43 kcal/mol.
CTTGTCACGTGGGGCA was tested, and the “relative binding free energy” value was -0.1 kcal/mol.
In the case of TGGGTCACGTGAATCG, the “relative binding free energy” value is reported as 0.26 kcal/mol.
CTGGCCACGTGTAGGG was tested, and the “relative binding free energy” value was -0.11 kcal/mol.
In the case of ATTGTCACGTGGAGAG, the “relative binding free energy” value is reported as 0.06 kcal/mol.
For TTGTTCACGTGATAAA, the “relative binding free energy” value was 0.34 kcal/mol.
TTTCACACGTGAGATG was tested, and the “relative binding free energy” value was 0.33 kcal/mol.
For ACGAGCACGTGGGGAG, the “relative binding free energy” value was -0.25 kcal/mol.
TTGAACACGTGATGGT was tested, and the “relative binding free energy” value was 0.15 kcal/mol.
In the case of TGATGCACGTGGCAGG, the “relative binding free energy” value is reported as -0.11 kcal/mol.
In the case of AGATACACGTGGTATG, the “relative binding free energy” value is reported as 0.03 kcal/mol.
TTGTCCACGTGAGAGG was tested, and the “relative binding free energy” value was 0.15 kcal/mol.
For AAGGGCACGTGGTGGT, the “relative binding free energy” value was -0.11 kcal/mol.
With CGGTACACGTGATGGT the “relative binding free energy” value was 0.15 kcal/mol.
For CTATTCACGTGGCTGG, the “relative binding free energy” value was 0.27 kcal/mol.
In the case of TTAAACACGTGTGCTT, the “relative binding free energy” value is reported as 0.03 kcal/mol.
In the case of AATGGCACGTGCTATT, the “relative binding free energy” value is reported as 0.08 kcal/mol.
For GGGTGCACGTGAGTAG, the “relative binding free energy” value was 0.24 kcal/mol.
In the case of GAGATCACGTGTGTGT, the “relative binding free energy” value is reported as 0.28 kcal/mol.
With AGGCACACGTGGATGG the “relative binding free energy” value was 0.04 kcal/mol.
With CGGTCCACGTGTGGGA the “relative binding free energy” value was 0.07 kcal/mol.
With TGGTTCACGTGGGAAC the “relative binding free energy” value was 0.23 kcal/mol.
For TGAAACACGTGTTTTA, the “relative binding free energy” value was 0.03 kcal/mol.
In the case of GTATGCACGTGTCTGT, the “relative binding free energy” value is reported as 0.02 kcal/mol.
ATAGGCACGTGGCATG was tested, and the “relative binding free energy” value was -0.14 kcal/mol.
For GTATGCACGTGAAAAT, the “relative binding free energy” value was 0.35 kcal/mol.
TTTAGCACGTGTAGAT was tested, and the “relative binding free energy” value was 0.14 kcal/mol.
For TTGCGCACGTGCTGGG, the “relative binding free energy” value was -0.09 kcal/mol.
For ATTTTCACGTGGCGAG, the “relative binding free energy” value was 0.26 kcal/mol.
For TTTGTCACGTGAGATA, the “relative binding free energy” value was 0.17 kcal/mol.
For GGACTCACGTGAGTTG, the “relative binding free energy” value was 0.46 kcal/mol.
In the case of ATTGGCACGTGAGAGT, the “relative binding free energy” value is reported as 0.09 kcal/mol.
In the case of TGGTACACGTGTTGGC, the “relative binding free energy” value is reported as 0.06 kcal/mol.
For AGTGGCACGTGCTATT, the “relative binding free energy” value was -0.18 kcal/mol.
In the case of CGTTGCACGTGAAGCG, the “relative binding free energy” value is reported as 0.12 kcal/mol.
With GGTTGCACGTGCCTGG the “relative binding free energy” value was -0.23 kcal/mol.
For TGCTTCACGTGTAAGA, the “relative binding free energy” value was 0.4 kcal/mol.
In the case of GTGCGCACGTGCGGGC, the “relative binding free energy” value is reported as -0.17 kcal/mol.
ACGAGCACGTGGGTTG was tested, and the “relative binding free energy” value was -0.27 kcal/mol.
With ATGCGCACGTGATAGG the “relative binding free energy” value was 0.02 kcal/mol.
In the case of GGTACCACGTGTTATG, the “relative binding free energy” value is reported as 0.02 kcal/mol.
TGCGTCACGTGGGGAA was tested, and the “relative binding free energy” value was -0.12 kcal/mol.
For AGTTGCACGTGAGGAC, the “relative binding free energy” value was 0.28 kcal/mol.
With AGTGTCACGTGTGATA the “relative binding free energy” value was 0.17 kcal/mol.
In the case of TGGGGCACGTGCAGTG, the “relative binding free energy” value is reported as -0.15 kcal/mol.
With CGTACCACGTGGGTGG the “relative binding free energy” value was -0.16 kcal/mol.
ACAGACACGTGTGGGT was tested, and the “relative binding free energy” value was -0.01 kcal/mol.
In the case of TGTCGCACGTGTTTGC, the “relative binding free energy” value is reported as -0.05 kcal/mol.
For ATTCGCACGTGCGGTG, the “relative binding free energy” value was -0.03 kcal/mol.
In the case of TCGTACACGTGGTGTA, the “relative binding free energy” value is reported as -0.09 kcal/mol.
For AGGTTCACGTGGCTGG, the “relative binding free energy” value was 0.23 kcal/mol.
For TGCATCACGTGCTGGG, the “relative binding free energy” value was 0.08 kcal/mol.
For TAGGACACGTGGGCAA, the “relative binding free energy” value was -0.04 kcal/mol.
With GAGAGCACGTGGGTAA the “relative binding free energy” value was -0.06 kcal/mol.
For TATGTCACGTGATATG, the “relative binding free energy” value was 0.14 kcal/mol.
For GGTGGCACGTGAGCTC, the “relative binding free energy” value was 0.3 kcal/mol.
For ATAGGCACGTGAGTGT, the “relative binding free energy” value was 0.09 kcal/mol.
For TGAAGCACGTGGGGGA, the “relative binding free energy” value was -0.17 kcal/mol.
With GGTAGCACGTGGTCTT the “relative binding free energy” value was -0.23 kcal/mol.
